Laboratory results as given in PubChem BioAssay AID485364 (National Center for Advancing Translational Sciences (NCATS), 2010).
About 11,000 (3.1%) of roughly 360,000 compounds were called active. The shares of active, inactive and inconclusive entries below differ from those in the screen. Calls come from the whole dose curve; as a rule, active = well fitted inhibition curve with a large enough effect; inconclusive = small, poorly fitted or top-dose-only effect; inactive = no such curve, though single readings can be large or run the other way. No potency is given beside an inconclusive call; the fits are too rough.
Note: nearly all actives have a fitted effect of over 60% in size.
Potency is the fitted concentration of half-maximal effect; tags give direction and shape of the fitted curve.

The molecules below were run against Schistosoma mansoni thioredoxin glutathione reductase (TGR) (UniProt Q962Y6) (assay: qHTS Assay for the Inhibitors of Schistosoma Mansoni Peroxiredoxins). Conditions: purified TGR, DTNB reduction, TNB absorbance 405 nm; series mostly up to 114 µM.
Summary of the method: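 TGR 20 nM + NADPH 100 uM (dispensed conc.), cpd preinc 15 min RT; start with NADPH (500 uM addition) then DTNB (15 mM addition). Kinetic TNB absorbance, 405 nm filter. Four-parameter Hill fit across titration.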
For `O=C(O)/C=C/C(=O)Nc1cccc(C(F)(F)F)c1`, the Potency was inconclusive [inhibitor, single point].
For `Cc1sc2nc(C3CC3)nc(SCC(=O)NCc3ccco3)c2c1C`, the Potency was inconclusive [inhibitor, full curve].
For `O=C(CC1C(=O)NCCN1Cc1ccccc1)NCCN1CCCCC1=O` (stereo not drawn), the Potency was inconclusive [inhibitor, partial curve].
With `CCCOc1ccc(-c2cn3ccccc3n2)cc1` the Potency was “inactive”.
For `O=c1nc2ccccc2c2n1CC(CN1CCN(c3ccccc3F)CC1)N2` (stereo not drawn), the Potency was “inactive”.
With `CCN(CC)C(=O)Cn1c(=O)n(-c2ccc(C)c(C)c2)c(=O)c2c(C)c(C(=O)N(CC)CC)sc21` the Potency was inconclusive [inhibitor, full curve, poor fit].
`Cc1ccc(S(=O)(=O)Cn2nnnc2CN(Cc2ccco2)Cc2cccs2)cc1` was tested, and the Potency was active: 44.7 µM.
For `COc1ccc(Br)cc1C(=O)Nc1ccc(-c2nc3ncccc3o2)cc1C`, the Potency was “inactive”.
With `Cc1oc(-c2ccc(C(=O)NCCN(C)C)cc2)nc1CS(=O)(=O)c1ccccc1` the Potency was “inactive”.
`Oc1ccc(/C=N/Nc2ccc3ccccc3c2)c(O)c1` was tested, and the Potency was active: 44.7 µM.
With `COc1ccc(Cn2nnnc2C(c2cc3cccc(C)c3[nH]c2=O)N2CCOCC2)cc1` (stereo not drawn) the Potency was “inactive”.
In the case of `O=C(Cn1cc2c(n1)CCCC2)NCCCN1CCN(C2CCCCC2)CC1`, the Potency is reported as “inactive”.
For `CCCCOc1cccc(C2C(C(=O)c3ccc(C)o3)=C(O)C(=O)N2Cc2ccco2)c1` (stereo not drawn), the Potency was inconclusive [inhibitor, partial curve].
For `CN1CCN(C2=C(Cl)C(=O)N(CCc3ccccc3)C2=O)CC1`, the Potency was inconclusive [inhibitor, partial curve].
In the case of `CCCCS(=O)(=O)c1oc(-c2cccs2)nc1S(=O)(=O)c1ccc(F)cc1`, the Potency is reported as active: 1.58 µM.
For `CCCn1nnnc1SCC(=O)c1ccc2c(c1)OCCO2`, the Potency was inconclusive [inhibitor, partial curve].
For `Cc1cc(N2CCN(C(=O)c3ccco3)CC2)nc(-c2ccccc2)n1`, the Potency was active: 44.7 µM.
`COc1ccc(Nc2nnc(C)c(=O)[nH]2)c(OC)c1` was tested, and the Potency was inconclusive [inhibitor, single point].
With `CSCCC(NC(=O)c1ccc([N+](=O)[O-])cc1Cl)C(=O)OC1CCCCC1=O` (stereo not drawn) the Potency was inconclusive [inhibitor, partial curve].
With `COc1ccc(CNC(=O)CCc2c(C)c3cc4c(C)c(C)oc4cc3oc2=O)cc1` the Potency was “inactive”.
In the case of `CC1(C)CC(=O)c2cc(C(=O)NC3CCSC3=O)c(=O)n(-c3ccccc3)c2C1` (stereo not drawn), the Potency is reported as “inactive”.
In the case of `Cn1c(SCC(=O)Nc2nnc(-c3ccccc3)o2)nnc1C1CC1`, the Potency is reported as inconclusive [inhibitor, single point].
For `N#C/C(=C\c1coc2ccccc2c1=O)C(N)=S`, the Potency was inconclusive [inhibitor, partial curve].
`O=C(N/N=C/c1cc([N+](=O)[O-])ccc1O)c1cccc(NC(=O)c2cccc(Cl)c2)c1` was tested, and the Potency was “inactive”.
`CC(C)N1CCN(Cc2ccc3c(c2)OCCO3)CC1CCO` (stereo not drawn) was tested, and the Potency was inconclusive [inhibitor, single point].
`O=C(c1cccnc1)c1cc2ccccc2[nH]1` was tested, and the Potency was “inactive”.
With `COc1ccccc1C(=O)N/C(=C\c1cn(C)c2ccccc12)C(=O)NCCCn1ccnc1` the Potency was inconclusive [inhibitor, partial curve].
In the case of `Cc1ccc(C(=O)NCc2ccco2)c(C)c1`, the Potency is reported as inconclusive [inhibitor, full curve, poor fit].
With `CN(C)C(CNC(=O)c1ccc(S(=O)(=O)Nc2ccccc2F)cc1)c1ccco1` (stereo not drawn) the Potency was inconclusive [inhibitor, partial curve].
For `CN(C)c1ccccc1C(=O)N1CCC(n2nccc2NC(=O)C2CC2)CC1`, the Potency was inconclusive [inhibitor, single point].
In the case of `CCc1nnc(NC(=O)c2ccc3ccccc3n2)s1`, the Potency is reported as “inactive”.
In the case of `COc1ccccc1CCNC(=O)CNC(=O)Cc1cccc2ccccc12`, the Potency is reported as “inactive”.
For `COc1cccc(C2C(C(=O)/C=C/c3ccco3)=C(O)C(=O)N2CCN2CCOCC2)c1` (stereo not drawn), the Potency was active: 4.47 µM.
In the case of `O=C(CCC(=O)N1CCN(c2ccccn2)CC1)c1ccc(Cl)s1`, the Potency is reported as inconclusive [inhibitor, partial curve].
In the case of `CCc1sc(C(=O)Nc2ncccc2O)cc1C`, the Potency is reported as inconclusive [inhibitor, partial curve].
With `C/C(=N\OC(=O)c1ccc(Br)cc1)c1ccccn1` the Potency was “inactive”.
In the case of `COc1ccc(OCC(=O)N2CCN(C3CCC(c4ccccc4)CC3)CC2)cc1` (stereo not drawn), the Potency is reported as inconclusive [inhibitor, full curve].
In the case of `Cc1ccn2c(CN3CCOCC3)c(-c3ccccc3)nc2c1`, the Potency is reported as “inactive”.
In the case of `CC(C)Cn1c(/C=C/c2ccco2)nc2ccccc21`, the Potency is reported as active: 7.94 µM.
For `Fc1ccc(NC(=S)Nc2nccs2)cc1`, the Potency was inconclusive [inhibitor, partial curve].
For `CCCn1c(N)c(N(CCOC)C(=O)c2cc(Cl)nc3ccccc23)c(=O)[nH]c1=O`, the Potency was “inactive”.
With `COc1ccc(-c2n[nH]c(=S)n2Cc2ccccc2)cc1OC` the Potency was inconclusive [inhibitor, single point].
With `COC(=O)Nc1nc(-c2ccccc2)c(C(=O)c2ccccc2)s1` the Potency was “inactive”.
`Cc1ccc(-c2nnc(Nc3ccc(Br)cc3)c3ccccc23)cc1S(=O)(=O)NCC1CCCO1` (stereo not drawn) was tested, and the Potency was “inactive”.
With `Cc1ccc(N2C(=O)NC(=O)/C(=C\c3cccn3C(C)(C)C)C2=O)cc1` the Potency was inconclusive [inhibitor, full curve, poor fit].
`Cc1cc(C(=O)CSc2ncccn2)c(C)n1Cc1ccco1` was tested, and the Potency was inconclusive [inhibitor, partial curve].
`CCN(CC)CCCNC(=S)N1CCN(c2nc(-c3ccccc3)cs2)CC1` was tested, and the Potency was inconclusive [inhibitor, full curve, poor fit].
For `C/C(CC(=O)Nc1ccc(N(C)C)cc1)=N\NC(=O)c1ccccc1O`, the Potency was active: 44.7 µM.
